{"source": "the supplement of paper PMC8728848", "test_in_all_cases": "glycan array binding signal (z-score within array); higher = stronger binding", "conditions_in_all_cases": "glycan notation: IUPAC condensed, linker removed", "key": {"[1]": {"target": "Gal(b1-4)GalNAc(b1-3)[Fuc(a1-2)]Gal(b1-4)GlcNAc", "outline": "(§1)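 From the Consortium for Functional Glycomics database, 3228 arrays were curated, keeping only those whose protein sequence was available. Binding is given as a within-array Z-score averaged across arrays sharing a protein sequence and across linkers. Negative Z-scores can be read as non-binding.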"}, "Gal(b1-4)Glc": {"target": "Gal(b1-4)Glc", "outline": "as §1"}, "Gal(b1-4)Glc6S": {"target": "Gal(b1-4)Glc6S", "outline": "as §1"}, "Gal(b1-4)GlcNAc": {"target": "Gal(b1-4)GlcNAc", "outline": "as §1"}, "[2]": {"target": "Gal(b1-4)GlcNAc(a1-6)Gal(b1-4)GlcNAc", "outline": "as §1"}, "Gal(b1-4)GlcNAc(b1-2)Man": {"target": "Gal(b1-4)GlcNAc(b1-2)Man", "outline": "as §1"}, "[3]": {"target": "Gal(b1-4)GlcNAc(b1-2)Man(a1-3)Man(b1-4)GlcNAc(b1-4)GlcNAc", "outline": "as §1"}, "[4]": {"target": "Gal(b1-4)GlcNAc(b1-2)Man(a1-3)[Gal(b1-4)GlcNAc(b1-2)Man(a1-6)]Man(b1-4)GlcNAc(b1-4)GlcNAc", "outline": "as §1"}, "[5]": {"target": "Gal(b1-4)GlcNAc(b1-2)Man(a1-3)[Gal(b1-4)GlcNAc(b1-2)Man(a1-6)]Man(b1-4)GlcNAc(b1-4)[Fuc(a1-6)]GlcNAc", "outline": "as §1"}, "[6]": {"target": "Gal(b1-4)GlcNAc(b1-2)Man(a1-3)[Gal(b1-4)GlcNAc(b1-2)Man(a1-6)][Gal(b1-4)GlcNAc(b1-4)]Man(b1-4)GlcNAc(b1-4)[Fuc(a1-6)]GlcNAc", "outline": "as §1"}, "[7]": {"target": "Gal(b1-4)GlcNAc(b1-2)Man(a1-3)[Gal(b1-4)GlcNAc(b1-2)Man(a1-6)][GlcNAc(b1-4)]Man(b1-4)GlcNAc(b1-4)[Fuc(a1-6)]GlcNAc", "outline": "as §1"}, "[8]": {"target": "Gal(b1-4)GlcNAc(b1-2)Man(a1-3)[GlcNAc(b1-2)Man(a1-6)]Man(b1-4)GlcNAc(b1-4)GlcNAc", "outline": "as §1"}, "[9]": {"target": "Gal(b1-4)GlcNAc(b1-2)Man(a1-3)[GlcNAc(b1-4)][Gal(b1-4)GlcNAc(b1-2)Man(a1-6)]Man(b1-4)GlcNAc(b1-4)GlcNAc", "outline": "as §1"}, "[10]": {"target": "Gal(b1-4)GlcNAc(b1-2)Man(a1-3)[Man(a1-6)]Man(b1-4)GlcNAc(b1-4)GlcNAc", "outline": "as §1"}, "[11]": {"target": "Gal(b1-4)GlcNAc(b1-2)Man(a1-6)Man(b1-4)GlcNAc(b1-4)GlcNAc", "outline": "as §1"}, "[12]": {"target": "Gal(b1-4)GlcNAc(b1-2)Man(a1-6)[GlcNAc(b1-2)Man(a1-3)]Man(b1-4)GlcNAc(b1-4)GlcNAc", "outline": "as §1"}, "[13]": {"target": "Gal(b1-4)GlcNAc(b1-2)Man(a1-6)[Man(a1-3)]Man(b1-4)GlcNAc(b1-4)GlcNAc", "outline": "as §1"}, "[14]": {"target": "Gal(b1-4)GlcNAc(b1-2)[Gal(b1-4)GlcNAc(b1-4)]Man(a1-3)[Gal(b1-4)GlcNAc(b1-2)Man(a1-6)]Man(b1-4)GlcNAc(b1-4)GlcNAc", "outline": "as §1"}, "[15]": {"target": "Gal(b1-4)GlcNAc(b1-2)[Gal(b1-4)GlcNAc(b1-4)]Man(a1-3)[Gal(b1-4)GlcNAc(b1-2)[Gal(b1-4)GlcNAc(b1-6)]Man(a1-6)]Man(b1-4)GlcNAc(b1-4)GlcNAc", "outline": "as §1"}, "[16]": {"target": "Gal(b1-4)GlcNAc(b1-2)[Gal(b1-4)GlcNAc(b1-4)]Man(a1-3)[GlcNAc(b1-4)][Gal(b1-4)GlcNAc(b1-2)Man(a1-6)]Man(b1-4)GlcNAc(b1-4)GlcNAc", "outline": "as §1"}, "[17]": {"target": "Gal(b1-4)GlcNAc(b1-2)[Gal(b1-4)GlcNAc(b1-4)]Man(a1-3)[GlcNAc(b1-4)][Gal(b1-4)GlcNAc(b1-2)[Gal(b1-4)GlcNAc(b1-6)]Man(a1-6)]Man(b1-4)GlcNAc(b1-4)GlcNAc", "outline": "as §1"}, "[18]": {"target": "Gal(b1-4)GlcNAc(b1-2)[Gal(b1-4)GlcNAc(b1-6)]Man(a1-6)[Gal(b1-4)GlcNAc(b1-2)Man(a1-3)]Man(b1-4)GlcNAc(b1-4)GlcNAc", "outline": "as §1"}, "[19]": {"target": "Gal(b1-4)GlcNAc(b1-2)[Gal(b1-4)GlcNAc(b1-6)]Man(a1-6)[Gal(b1-4)GlcNAc(b1-2)Man(a1-3)]Man(b1-4)GlcNAc(b1-4)[Fuc(a1-6)]GlcNAc", "outline": "as §1"}, "[20]": {"target": "Gal(b1-4)GlcNAc(b1-2)[Gal(b1-4)GlcNAc(b1-6)]Man(a1-6)[GlcNAc(b1-4)][Gal(b1-4)GlcNAc(b1-2)Man(a1-3)]Man(b1-4)GlcNAc(b1-4)GlcNAc", "outline": "as §1"}, "[21]": {"target": "Gal(b1-4)GlcNAc(b1-2)[Gal(b1-4)GlcNAc(b1-6)]Man(a1-6)[GlcNAc(b1-4)][Gal(b1-4)GlcNAc(b1-2)[Gal(b1-4)GlcNAc(b1-4)]Man(a1-3)]Man(b1-4)GlcNAc(b1-4)[Fuc(a1-6)]GlcNAc", "outline": "as §1"}, "[22]": {"target": "Gal(b1-4)GlcNAc(b1-3)Gal(b1-3)GalNAc", "outline": "as §1"}, "[23]": {"target": "Gal(b1-4)GlcNAc(b1-3)Gal(b1-3)GlcNAc", "outline": "as §1"}, "[24]": {"target": "Gal(b1-4)GlcNAc(b1-3)Gal(b1-4)Glc", "outline": "as §1"}, "[25]": {"target": "Gal(b1-4)GlcNAc(b1-3)Gal(b1-4)GlcNAc", "outline": "as §1"}, "[26]": {"target": "Gal(b1-4)GlcNAc(b1-3)Gal(b1-4)GlcNAc(b1-2)Man(a1-3)[Gal(b1-4)GlcNAc(b1-3)Gal(b1-4)GlcNAc(b1-2)Man(a1-6)]Man(b1-4)GlcNAc(b1-4)GlcNAc", "outline": "as §1"}, "[27]": {"target": "Gal(b1-4)GlcNAc(b1-3)Gal(b1-4)GlcNAc(b1-2)Man(a1-3)[Gal(b1-4)GlcNAc(b1-3)Gal(b1-4)GlcNAc(b1-2)Man(a1-6)]Man(b1-4)GlcNAc(b1-4)[Fuc(a1-6)]GlcNAc", "outline": "as §1"}, "[28]": {"target": "Gal(b1-4)GlcNAc(b1-3)Gal(b1-4)GlcNAc(b1-2)[Gal(b1-4)GlcNAc(b1-3)Gal(b1-4)GlcNAc(b1-6)]Man(a1-6)[Gal(b1-4)GlcNAc(b1-3)Gal(b1-4)GlcNAc(b1-2)Man(a1-3)]Man(b1-4)GlcNAc(b1-4)GlcNAc", "outline": "as §1"}, "[29]": {"target": "Gal(b1-4)GlcNAc(b1-3)Gal(b1-4)GlcNAc(b1-2)[Gal(b1-4)GlcNAc(b1-3)Gal(b1-4)GlcNAc(b1-6)]Man(a1-6)[Gal(b1-4)GlcNAc(b1-3)Gal(b1-4)GlcNAc(b1-2)Man(a1-3)]Man(b1-4)GlcNAc(b1-4)[Fuc(a1-6)]GlcNAc", "outline": "as §1"}, "[30]": {"target": "Gal(b1-4)GlcNAc(b1-3)Gal(b1-4)GlcNAc(b1-3)Gal(b1-4)GlcNAc", "outline": "as §1"}, "[31]": {"target": "Gal(b1-4)GlcNAc(b1-3)Gal(b1-4)GlcNAc(b1-3)Gal(b1-4)GlcNAc(b1-2)Man(a1-3)[Gal(b1-4)GlcNAc(b1-3)Gal(b1-4)GlcNAc(b1-3)Gal(b1-4)GlcNAc(b1-2)Man(a1-6)]Man(b1-4)GlcNAc(b1-4)GlcNAc", "outline": "as §1"}, "[32]": {"target": "Gal(b1-4)GlcNAc(b1-3)Gal(b1-4)GlcNAc(b1-3)Gal(b1-4)GlcNAc(b1-2)Man(a1-3)[Gal(b1-4)GlcNAc(b1-3)Gal(b1-4)GlcNAc(b1-3)Gal(b1-4)GlcNAc(b1-2)Man(a1-6)]Man(b1-4)GlcNAc(b1-4)[Fuc(a1-6)]GlcNAc", "outline": "as §1"}, "[33]": {"target": "Gal(b1-4)GlcNAc(b1-3)Gal(b1-4)GlcNAc(b1-3)Gal(b1-4)GlcNAc(b1-2)[Gal(b1-4)GlcNAc(b1-3)Gal(b1-4)GlcNAc(b1-3)Gal(b1-4)GlcNAc(b1-6)]Man(a1-6)[Gal(b1-4)GlcNAc(b1-3)Gal(b1-4)GlcNAc(b1-3)Gal(b1-4)GlcNAc(b1-2)Man(a1-3)]Man(b1-4)GlcNAc(b1-4)[Fuc(a1-6)]GlcNAc", "outline": "as §1"}}, "note": "This is one part of the list."}
{"binder": "AT1G15820(2) (Arabidopsis thaliana), Q9LMQ2 (protein) MAMAVSGAVLSGLGSSFLTGGKRGATALASGVGTGAQRVGRKTLIVAAAAAQPKKSWIPAVKGGGNFLDPEWLDGSLPGDFGFDPLGLGKDPAFLKWYREAELIHGRWAMAAVLGIFVGQAWSGVAWFEAGAQPDAIAPFSFGSLLGTQLLLMGWVESKRWVDFFNPDSQSVEWATPWSKTAENFANYTGDQGYPGGRFFDPLGLAGKNRDGVYEPDFEKLERLKLAEIKHSRLAMVAMLIFYFEAGQGKTPLGALGL", "values": [{"measurement": "glycan array binding signal (z-score)", "setting": "[1]", "result": -0.276}, {"measurement": "glycan array binding signal (z-score)", "setting": "Gal(b1-4)Glc", "result": 0.004}, {"measurement": "glycan array binding signal (z-score)", "setting": "Gal(b1-4)Glc6S", "result": 0.098}, {"measurement": "glycan array binding signal (z-score)", "setting": "Gal(b1-4)GlcNAc", "result": -0.146}, {"measurement": "glycan array binding signal (z-score)", "setting": "[2]", "result": -0.192}, {"measurement": "glycan array binding signal (z-score)", "setting": "Gal(b1-4)GlcNAc(b1-2)Man", "result": 0.209}, {"measurement": "glycan array binding signal (z-score)", "setting": "[3]", "result": -0.043}, {"measurement": "glycan array binding signal (z-score)", "setting": "[4]", "result": 0.213}, {"measurement": "glycan array binding signal (z-score)", "setting": "[5]", "result": -0.4}, {"measurement": "glycan array binding signal (z-score)", "setting": "[6]", "result": -0.43}, {"measurement": "glycan array binding signal (z-score)", "setting": "[7]", "result": -0.422}, {"measurement": "glycan array binding signal (z-score)", "setting": "[8]", "result": -0.663}, {"measurement": "glycan array binding signal (z-score)", "setting": "[9]", "result": -0.318}, {"measurement": "glycan array binding signal (z-score)", "setting": "[10]", "result": 0.091}, {"measurement": "glycan array binding signal (z-score)", "setting": "[11]", "result": 0.118}, {"measurement": "glycan array binding signal (z-score)", "setting": "[12]", "result": 0.324}, {"measurement": "glycan array binding signal (z-score)", "setting": "[13]", "result": -0.33}, {"measurement": "glycan array binding signal (z-score)", "setting": "[14]", "result": -0.39}, {"measurement": "glycan array binding signal (z-score)", "setting": "[15]", "result": -0.037}, {"measurement": "glycan array binding signal (z-score)", "setting": "[16]", "result": -0.16}, {"measurement": "glycan array binding signal (z-score)", "setting": "[17]", "result": 0.16}, {"measurement": "glycan array binding signal (z-score)", "setting": "[18]", "result": -0.544}, {"measurement": "glycan array binding signal (z-score)", "setting": "[19]", "result": -0.418}, {"measurement": "glycan array binding signal (z-score)", "setting": "[20]", "result": 0.1}, {"measurement": "glycan array binding signal (z-score)", "setting": "[21]", "result": -0.453}, {"measurement": "glycan array binding signal (z-score)", "setting": "[22]", "result": -0.659}, {"measurement": "glycan array binding signal (z-score)", "setting": "[23]", "result": -0.454}, {"measurement": "glycan array binding signal (z-score)", "setting": "[24]", "result": -0.362}, {"measurement": "glycan array binding signal (z-score)", "setting": "[25]", "result": -0.4}, {"measurement": "glycan array binding signal (z-score)", "setting": "[26]", "result": 0.779}, {"measurement": "glycan array binding signal (z-score)", "setting": "[27]", "result": -0.156}, {"measurement": "glycan array binding signal (z-score)", "setting": "[28]", "result": 0.773}, {"measurement": "glycan array binding signal (z-score)", "setting": "[29]", "result": 0.385}, {"measurement": "glycan array binding signal (z-score)", "setting": "[30]", "result": -0.434}, {"measurement": "glycan array binding signal (z-score)", "setting": "[31]", "result": 0.146}, {"measurement": "glycan array binding signal (z-score)", "setting": "[32]", "result": -0.247}, {"measurement": "glycan array binding signal (z-score)", "setting": "[33]", "result": -0.163}]}
